# According to the supplement of paper PMC6531468:
# The list shows a part of the results. These are enrichments in a pooled selection; single values are uncertain. Each score is taken over the longer molecules that contain the sequence shown.
# System: IMP3 KH1-2
# Assay: 6-mer SELEX enrichment z-score vs GST control; IMP3 is the RNA-binding protein IGF2BP3; higher = more enriched by binding
# Details: construct: KH1-2 (164-376); SELEX round: R4
# Description: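 SELEX-seq with GST-tagged IMP3 KH1-2 (Pro164-Phe376) and an N40 RNA pool, round 4 (stringent 300/600 mM KCl washes). 6-mer z-score of sequence-tag enrichment normalised to the corresponding GST SELEX round; RNA k-mers written as DNA (T for U).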
# Sequence of IMP3 KH1-2 (chain, as listed by the source): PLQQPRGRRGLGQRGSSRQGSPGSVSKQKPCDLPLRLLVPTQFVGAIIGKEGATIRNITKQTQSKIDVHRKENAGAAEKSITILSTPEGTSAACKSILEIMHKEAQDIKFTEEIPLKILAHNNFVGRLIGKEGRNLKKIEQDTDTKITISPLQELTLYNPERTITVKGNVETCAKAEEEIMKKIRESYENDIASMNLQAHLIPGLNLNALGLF
row,Sequence,6-mer SELEX enrichment z-score
1,AAGTTC,-0.163
2,TTGTCG,-0.005
3,TCTTGA,-0.695
4,ACGCAA,0.085
5,CAACGT,-1.24
6,GCGCGC,0.012
7,GCCCAA,-2.25
8,CGGAAC,-0.705
9,ACCACG,-0.872
10,ATCACT,1.31
11,CTCGAC,-1.63
12,GCTCCA,0.113
13,AGAGAA,0.76
14,TGGCGC,-0.065
15,GGATAG,0.593
16,CTATAA,1.08
17,CTCGGC,0.114
18,GACGGC,0.514
19,CGGCCA,1.96
20,TCGAAC,-1.86

row,Sequence,6-mer SELEX enrichment z-score
1,TGGAGA,0.225
2,ACAACG,-0.353
3,GACAGT,0.257
4,GCTCGG,-0.136
5,AGGGAT,0.612
6,CAAACT,-0.105
7,GTTCCC,-0.385
8,TACTCG,-0.732
9,TTGGTG,0.042
10,TGCCTC,-0.579
11,TGCCCC,-0.386
12,CAACTA,0.779
13,CACACC,0.37
14,TACAAG,0.33
15,TTACCG,-0.037
16,CTAGAA,-0.208
17,GTCATG,0.08
18,ATACAG,1.79
19,GCCATA,0.942
20,CCCTGT,-0.237
